Data as given in the supplement of paper PMC4604168 (melanoma cell lines).
This is one part of the list. Many values rest on one well or one pass, so single values are uncertain.

Tests used:
Assay in all cases: cell count relative to DMSO control; melanoma cells; higher = more viable cells
Conditions in all cases: library dose: low library concentration; 72 h
[1] = tested on: WM115
[2] = tested on: WM1716
[3] = tested on: WM1745
[4] = tested on: WM3526
[5] = tested on: WM3619
[6] = tested on: WM451Lu
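Also: cell number obtained by counting DAPI-stained nuclei in high-throughput microscope images with image analysis software, screen run in 1,536-well plates.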

Row | Structure (SMILES) | cell count [1] | cell count [2] | cell count [3] | cell count [4] | cell count [5] | cell count [6]
1 | COc1cc([C@@H]2c3cc4c(cc3[C@@H](O[C@@H]3O[C@@H]5CO[C@@H](C)O[C@H]5[C@H](O)[C@H]3O)[C@H]3COC(=O)[C@H]23)OCO4)cc(OC)c1O [etoposide] + CN(NC(=O)CC(=O)NN(C)C(=S)c1ccccc1)C(=S)c1ccccc1 [STA4783] (first compound 0.02 µM, partner dose 0.006 µM) | 86.1% | 74% | 51.2% | 106% | 66.8% | 127%
2 | COc1cc([C@@H]2c3cc4c(cc3[C@@H](O[C@@H]3O[C@@H]5CO[C@@H](C)O[C@H]5[C@H](O)[C@H]3O)[C@H]3COC(=O)[C@H]23)OCO4)cc(OC)c1O [etoposide] + COc1ccc(-c2ccc3c(N4CCOCC4)nc(N4C[C@@H](C)O[C@@H](C)C4)nc3n2)cc1CO [KU0063794] (first compound 0.02 µM, partner dose 0.02 µM) | 82.4% | 91.5% | 95.9% | 96.7% | 90.8% | 75.8%
3 | COc1cc([C@@H]2c3cc4c(cc3[C@@H](O[C@@H]3O[C@@H]5CO[C@@H](C)O[C@H]5[C@H](O)[C@H]3O)[C@H]3COC(=O)[C@H]23)OCO4)cc(OC)c1O [etoposide] + O=C(O)C(=O)Nc1sc2c(c1C(=O)O)CCNC2 [TCS401] (first compound 0.02 µM, partner dose 1.66667 µM) | 82.3% | 92.8% | 92.8% | 94.2% | 101% | 94.4%
4 | COc1cc([C@@H]2c3cc4c(cc3[C@@H](O[C@@H]3O[C@@H]5CO[C@@H](C)O[C@H]5[C@H](O)[C@H]3O)[C@H]3COC(=O)[C@H]23)OCO4)cc(OC)c1O [etoposide] + CCN(CC)CCNC(=O)c1c(C)[nH]c(/C=C2\C(=O)Nc3ccc(F)cc32)c1C [sunitinib] (first compound 0.02 µM, partner dose 0.4 µM) | 108% | 127% | 96.6% | 97.3% | 107% | 82.4%
5 | Cn1cnc2c(F)c(Nc3ccc(Br)cc3Cl)c(C(=O)NOCCO)cc21 [selumetinib] + Oc1cc(-c2nc(-c3ccccc3)[nH]c2-c2ccncc2)ccc1Cl [L779450] (first compound 0.015 µM, partner dose 0.2 µM) | 58.3% | 116% | 79.3% | 50.6% | 75.5% | 80.7%
6 | C[C@]1(O)C[C@@H](c2nc(-c3ccc4ccc(-c5ccccc5)nc4c3)c3c(N)nccn32)C1 + COC(=O)c1sccc1S(=O)(=O)Nc1ccc(Nc2ccccc2)cc1OC [GSK0660] (first compound 0.4 µM, partner dose 1 µM) | 106% | 106% | 84.3% | 85.3% | 88.8% | 97.4%
7 | COc1cc([C@@H]2c3cc4c(cc3[C@@H](O[C@@H]3O[C@@H]5CO[C@@H](C)O[C@H]5[C@H](O)[C@H]3O)[C@H]3COC(=O)[C@H]23)OCO4)cc(OC)c1O [etoposide] + CNC(=O)c1cc(Oc2ccc(NC(=O)Nc3ccc(Cl)c(C(F)(F)F)c3)cc2)ccn1 [sorafenib] (first compound 0.02 µM, partner dose 0.4 µM) | 97.5% | 88.5% | 92.6% | 121% | 97.9% | 87%
8 | C[C@]1(O)C[C@@H](c2nc(-c3ccc4ccc(-c5ccccc5)nc4c3)c3c(N)nccn32)C1 + N#Cc1c(O)c2c(-c3ccc(-c4ccccc4O)cc3)csc2[nH]c1=O [A769662] (first compound 0.4 µM, partner dose 2 µM) | 96.6% | 113% | 85.5% | 86.8% | 87.8% | 92.4%
9 | Cn1cnc2c(F)c(Nc3ccc(Br)cc3Cl)c(C(=O)NOCCO)cc21 [selumetinib] + Cn1c(=O)n(-c2ccc(C(C)(C)C#N)cc2)c2c3cc(-c4cnc5ccccc5c4)ccc3ncc21 [NVP-BEZ235] (first compound 0.015 µM, partner dose 0.004 µM) | 87.5% | 103% | 82.8% | 77.2% | 69.7% | 95.1%
10 | Cn1cnc2c(F)c(Nc3ccc(Br)cc3Cl)c(C(=O)NOCCO)cc21 [selumetinib] + NCC(=O)Nc1ccc(-n2nc(C(F)(F)F)cc2-c2ccc3c(ccc4ccccc43)c2)cc1 [OSU03012] (first compound 0.015 µM, partner dose 1 µM) | 86.3% | 118% | 113% | 51.8% | 73.3% | 71.3%
